{
  "source": "ChEMBL document CHEMBL4888484",
  "about": "“Replenishing the malaria drug discovery pipeline: Screening and hit evaluation of the MMV Hit Generation Library 1 (HGL1) against asexual blood stage Plasmodium falciparum ,using a nano luciferase reporter read-out” (2022)",
  "note": "In all, about 150,000 compounds went through this assay and about 540 (0.36%) showed an effect of 50% or more. The list shows a part of the results.",
  "data": [
    {"system": "Plasmodium falciparum", "assay": "Primary screen in NF54 nanoGlo assay, in single point, at 2uM, 72h; a lower Z score goes with more inhibition", "type": "functional, Erythrocyte", "settings": "timepoint 72 hour", "units": {"% Inhibition": "%"}, "values": [
      {"compound": "COc1cc(CN2CC[C@H](c3nccc(C(F)(F)F)n3)C2)sn1", "% Inhibition": 9, "Z score": -1.1},
      {"compound": "COC(=O)C1CCC(C(=O)N(C)C2CCCCCCC2)CC1", "note": "(stereo not drawn)", "% Inhibition": 15, "Z score": -1.35},
      {"compound": "N#CCNC(=O)CCOc1ccccc1Br", "% Inhibition": -3, "Z score": 0.33},
      {"compound": "CCOC(=O)CN(C(=O)c1c2ccccc2nn1C)C(C)(C)C", "% Inhibition": 8, "Z score": -0.83},
      {"compound": "CN(C)CCN(C)C(=O)N[C@@H]1COC(C)(C)O[C@@H]1c1ccccc1", "% Inhibition": -5, "Z score": 1.06},
      {"compound": "COc1ccnc(NCc2ccc(N3CCOCC3)cc2)n1", "% Inhibition": 34, "Z score": -4.65},
      {"compound": "Cc1nccn1-c1ccc(-c2cccc3cccnc23)nn1", "% Inhibition": -7, "Z score": 1.11},
      {"compound": "O=C1CCN(Cc2cc3cc4c(cc3nc2-c2ccc(Cl)cc2)OCO4)CCN1", "% Inhibition": 2, "Z score": -0.18},
      {"compound": "CNC(=O)c1sc(N2CCO[C@@H](C)C2)nc1C", "% Inhibition": -3, "Z score": 0.46},
      {"compound": "COc1cc(-c2nc3ccc(C(=O)NC[C@H]4CCCO4)cc3nc2-c2cc(OC)c(OC)c(OC)c2)cc(OC)c1OC", "% Inhibition": -9, "Z score": 1.04},
      {"compound": "Cc1ccc(O[C@H]2CCN(C(=O)Nc3ccc4c(c3)OCO4)C2)nc1", "% Inhibition": -12, "Z score": 2.33},
      {"compound": "Cc1cc(C)n(-c2ccc(CCNC(=O)NC3CCOCC3)cc2)n1", "% Inhibition": 2, "Z score": -0.35},
      {"compound": "C[C@H]1c2cccn2CCN1Cc1nnsc1Cl", "% Inhibition": -10, "Z score": 1.56},
      {"compound": "Cc1nc(C)c(C(=O)N2CCC[C@H]2c2ncc(C)n2Cc2ccncc2)s1", "% Inhibition": 1, "Z score": -0.15},
      {"compound": "CN(C)C1CN(c2nccnc2C#N)C1", "% Inhibition": 4, "Z score": -0.52},
      {"compound": "O=C(OCc1nc(-c2ccccc2)no1)c1cccnc1", "% Inhibition": 28, "Z score": -3.21},
      {"compound": "CC(=O)c1ccc(Oc2nc(C)nc(N3CCCCC3)c2N)cc1", "% Inhibition": 8, "Z score": -1.36},
      {"compound": "Cc1cccc(C2CCCCN2C(=O)NC(C)Cn2cncn2)c1C", "note": "(stereo not drawn)", "% Inhibition": -5, "Z score": 0.64},
      {"compound": "CO[C@H]1C[C@H]2CN(C(=O)NCCc3ccccc3)CC(=O)N2C1", "% Inhibition": 2, "Z score": -0.3},
      {"compound": "O=C(C[C@H]1CCCCNC1=O)NCc1ccccc1O", "% Inhibition": 3, "Z score": -0.52},
      {"compound": "CC(C)Cn1ccnc1CCN1C(=O)c2ccccc2C1=O", "% Inhibition": 0, "Z score": -0.1},
      {"compound": "Cc1ccc(N[C@H]2CC3=C(CC2(C)C)C(C)(C)CCC3)cc1", "% Inhibition": -3, "Z score": 0.67},
      {"compound": "CCn1c(-c2cc(NC(=O)c3ccc(C)c(F)c3)[nH]n2)cc2ccc(OC)cc21", "% Inhibition": 18, "Z score": -2},
      {"compound": "CC(C)C[C@@H](C(=O)O)N(C)C(=O)c1ccc2c(c1)CC(C)O2", "note": "(stereo partly drawn)", "% Inhibition": -6, "Z score": 1.07}
    ]}
  ]
}
